From PubChem BioAssay AID1865 (National Center for Advancing Translational Sciences (NCATS), 2009)
Out of some 280,000 compounds screened, about 540 (0.19%) were called active. The shares of active, inactive and inconclusive entries below differ from those in the screen. The call rests on the fitted dose curve; in most records, active means well fitted activation curve with a large enough effect; inconclusive means small, poorly fitted or top-dose-only effect; inactive means flat fitted curve, though single readings scatter. Potencies of inconclusive entries are doubtful fits and often do not repeat.

Experiment: Quantitative High-Throughput Screen for Regulators of Epigenetic Control; further: nearly all actives have a fitted effect of over 60% in size; on GFP activation: % of control where 0% means no effect
Settings: murine LDR cells, GFP reporter derepression, 30 h; GFP activation: at 53.9 µM (top of the series)
Method in brief: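 Derepression of a silenced CMV-GFP reporter in murine LDR cells is scored by enumerating GFP-positive cells with a laser-scanning microplate cytometer after 30 hours of treatment at 37 C.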
Potency means the concentration at half of the fitted maximal effect; tags describe the fitted curve by direction and shape.

| SMILES | Potency | GFP activation |
| --- | --- | --- |
| O=C(CC1N=C2c3ccccc3N=C(SCc3ccc(F)cc3)N2C1=O)NCc1ccco1 (stereo unspecified) | inactive |  |
| Cc1ccc(-c2noc(CN(C3CCCCC3)S(=O)(=O)c3ccc(F)cc3)n2)cc1 | inactive |  |
| COc1ccc(N=c2ssnc2Cl)cc1 | inactive |  |
| O=C(/C=C1\C(=O)Nc2ccccc21)/C=C1\C(=O)Nc2ccccc21 | inconclusive: 3.55 µM [activator, single point] |  |
| CC1(C)CC(=O)C(C=NCC2CCCO2)=C(O)C1 (stereo unspecified) | inconclusive: 12.6 µM [activator, single point] |  |
| CC(=O)N(C[C@@H](C)C(=O)O)c1c(I)cc(I)c(N)c1I | inactive |  |
| CCOc1ccc(C(=O)N2CCC(c3nc(-c4ccc(S(=O)(=O)N5CCCC5)cc4)no3)CC2)cc1 | inconclusive: 15.8 µM [activator, single point] |  |
| Cc1ccc(-c2cc(C(F)(F)F)c(C#N)c(SCCC#N)n2)o1 | inconclusive: 35.5 µM [activator, single point] |  |
| Cc1ccc2oc(=O)c3cnn(CC(=O)N4CCN(c5cccc(C(F)(F)F)c5)CC4)c3c2c1 | inconclusive: 35.5 µM [activator, single point] |  |
| Cc1cc(NCCO)nc(-n2nc(C)cc2C)n1 | inactive |  |
| Oc1c(C(c2ccccn2)N2CCCCC2)cc(Cl)c2cccnc12 (stereo unspecified) | inconclusive: 28.2 µM [activator, single point] |  |
| COc1cc2c(=O)c(C(=O)c3ccc(F)cc3)cn(Cc3cccc(F)c3)c2cc1OC | inactive |  |
| CN1CCN(CCCNC(=O)c2ccc(/C=C3/Sc4ccccc4N(Cc4cccc(Cl)c4)C3=O)cc2)CC1 | inconclusive: 35.5 µM [activator, single point] |  |
| CC(C)c1ccc(S(=O)(=O)c2cn(CC(=O)Nc3ccc(F)cc3)c3ccccc3c2=O)cc1 | inconclusive: 35.5 µM [activator, single point] |  |
| N#CC1=C(N)S[C@@H](C(=O)c2ccc(F)cc2)[C@@H]1c1cccs1 | inconclusive: 35.5 µM [activator, single point] |  |
| O=C(N/N=C/c1ccccc1)c1c(O)c2ccccc2[nH]c1=O | inactive |  |
| O=C(COc1cccc(C(F)(F)F)c1)N1CCN(c2ccccc2O)CC1 | inactive |  |
| CC(C)N1CCc2c(sc(NC(=O)c3ccc(S(=O)(=O)N(C)C4CCCCC4)cc3)c2C(N)=O)C1 | inconclusive: 5.01 µM [activator, partial curve, poor fit] |  |
| COCCN=C1NN=C(c2ccc(NC(C)=O)cc2)CS1 | inconclusive: 31.6 µM [activator, single point] |  |
| CCCC(=O)NC(=S)Nc1sc2c(c1C(N)=O)CCC2 | inactive |  |
| CCC1c2ccc(C)n2CCN1C(=O)Nc1ccccc1OC (stereo unspecified) | inconclusive: 35.5 µM [activator, single point] |  |
| CCC(=O)N1CCc2cc(S(=O)(=O)NCCC(=O)Nc3ccc(C)cc3)ccc21 | inactive |  |

| SMILES | Potency | GFP activation |
| --- | --- | --- |
| S=C(N=Nc1ccccc1)NNc1ccccc1 | inconclusive: 17.8 µM [activator, single point] |  |
| CCOc1ccc(NC(=O)C(C)Sc2nnnn2C)cc1 (stereo unspecified) | inactive |  |
| CCN(CC)S(=O)(=O)c1ccc(C(=O)/C=C/c2ccc(-c3ccc([N+](=O)[O-])cc3)o2)cc1 | inconclusive: 15.8 µM [activator, single point] |  |
| COc1ccc(/C=C2\CC/C(=C\c3ccc(OC)c(OC)c3)C2=O)cc1OC | inconclusive: 35.5 µM [activator, single point] |  |
| COc1cccc(C(=O)Nc2cccc(OCc3cc(=O)n4cc(C)ccc4n3)c2)c1 | inconclusive: 28.2 µM [activator, single point] |  |
| COc1cc(-c2noc(CCCC(=O)Nc3ccc(C(N)=O)cc3)n2)cc(OC)c1OC | inactive |  |
| Nc1cc(=O)nc(SCC(=O)Nc2ccc(F)cc2)n1-c1ccc(Cl)cc1 | inactive |  |
| O=C1N/C(=C/c2ccc(N3CCOCC3)o2)C(=O)N1c1cccc(Cl)c1 | inconclusive: 5.62 µM [activator, single point] |  |
| CN(C1=C(N2CCCCC2)C(=O)c2ccccc2C1=O)c1ccccc1 | inactive |  |
| Cc1cccc(NC(=O)C2CCCN(S(=O)(=O)c3cccc4nonc34)C2)c1 (stereo unspecified) | inconclusive: 22.4 µM [activator, single point] |  |
| COCCOC(=O)c1sc(=S)n(CCOC)c1N | inconclusive: 31.6 µM [activator, single point] |  |
| O=C(O)c1ccc(-c2ccc(/C=N/Nc3ccc([N+](=O)[O-])cc3)o2)cc1 | inconclusive: 8.91 µM [activator, partial curve] |  |
| S=c1[nH]c(-c2ccccc2)cn1/N=C/c1cccnc1 | inconclusive: 22.4 µM [activator, single point] |  |
| CC(C)CC(=O)NC(=S)Nc1ccc(NC(=O)c2ccco2)cc1 | inconclusive: 15.8 µM [activator, single point] |  |
| Cc1c(C(=O)Nc2ccc(-c3nc4cc(Cl)ccc4o3)cc2)oc2ccccc12 | inactive |  |
| O=C(COc1ccc(-c2nnco2)cc1)N1CCN(S(=O)(=O)c2ccc3ccccc3c2)CC1 | inconclusive: 28.2 µM [activator, single point] |  |
| CC(=O)OCC1OC(C#CCCc2ccccc2)C=CC1OC(C)=O (stereo unspecified) |  | inactive: 0% [at 10.1 µM] |
| CCN(C(=O)COC(=O)c1cccnc1Nc1cccc(C(F)(F)F)c1)C1CCS(=O)(=O)C1 (stereo unspecified) | inactive |  |
| COc1ccccc1CNc1nc(-c2ccc(N(C)C)cc2)nc2ccccc12 | inconclusive: 3.16 µM [activator, single point] |  |
| O=C(COc1ccc(F)cc1)Nc1ccccc1C(=O)OCc1cc(=O)n2nc(C3CC3)sc2n1 | inconclusive: 12.6 µM [activator, single point] |  |
| O=C1CCCC2=C1C1(CCCC1)N=C(Nc1nc3ccccc3s1)N2 | inconclusive: 35.5 µM [activator, single point] |  |
| CC(NC(=O)c1ccc(Nc2nc3ccccc3n3nnnc23)cc1)c1ccccc1 (stereo unspecified) | inconclusive: 17.8 µM [activator, single point] |  |

| SMILES | Potency | GFP activation |
| --- | --- | --- |
| Cc1cc2ncn(/N=C/c3ccc4c(c3)OCO4)c2cc1C | inconclusive: 25.1 µM [activator, single point] |  |
| O=C(O)C[C@@H]1C(=O)O[C@@H]2C(COC(=O)c3cc(O)c(O)c(O)c3)O[C@@H](OC(=O)c3cc(O)c(O)c(O)c3)[C@@H](OC(=O)c3cc(O)c(O)c4c3[C@H]1[C@H](O)C(=O)O4)[C@H]2OC(=O)c1cc(O)c(O)c(O)c1 (stereo partly specified) | inactive |  |
| NCCCCCc1cnc[nH]1 | inconclusive: 0.112 µM [activator, full curve, poor fit] |  |
| CCN(CC)c1ccc(/C=C/c2cc(-c3ccccc3)c3ccccc3n2)cc1 | active: 3.16 µM |  |
| O=C1CN(c2nc(-c3ccccc3)c3ccccc3n2)c2ccccc2N1 | inconclusive: 35.5 µM [activator, single point] |  |
| O=C(Nc1ccccc1)/C(=C/c1ccc2c(c1)OCO2)NC(=O)c1ccco1 | inconclusive: 17.8 µM [activator, single point] |  |
| CCC(=O)O[C@H]1C(O[C@@H]2C(C)[C@H](O[C@H]3C[C@@](C)(OC)C(O)C(C)O3)C(C)C(=O)OC(CC)[C@@](C)(O)C(O)[C@H](C)C(=O)C(C)C[C@]2(C)O)OC(C)CC1N(C)C (stereo partly specified) | inconclusive: 17.8 µM [activator, single point] |  |
| CN1C(C(=O)NCc2cccc(Br)c2)CC2Cn3c(nc4cc(Cl)c(Cl)cc43)C21 (stereo unspecified) | inconclusive: 35.5 µM [activator, single point] |  |
| Cc1c(C(=O)N/N=C/c2ccc(-c3ccccc3[N+](=O)[O-])o2)sc(N)c1C#N | inconclusive: 20 µM [activator, single point] |  |
| CCOC(=O)C(C(=O)Nc1ccccn1)C1CCCCC1 (stereo unspecified) | inactive |  |
| Cc1c2ccccc2nc2c(F)c(NC(C)C)c(F)c(F)c12 | inconclusive: 31.6 µM [activator, single point] |  |
| CCCC(=O)NC(c1ccc(OC)cc1)c1ccc2cccnc2c1O (stereo unspecified) | active: 3.55 µM |  |
| CCOc1ccc(C(=O)c2c(N)c(-c3nc(-c4ccc5c(c4)OCO5)cs3)c3ccccn23)cc1 | inconclusive: 22.4 µM [activator, single point] |  |
| Cc1ccc(-n2c(C)cc(/C=N/NC(N)=S)c2C)cc1 | inconclusive: 31.6 µM [activator, single point] |  |
| N#Cc1c(Sc2ncc(C(F)(F)F)cc2Cl)nsc1C/C=N\OCc1ccccc1Br | inconclusive: 3.98 µM [activator, single point] |  |
| COc1ccc(NC(=O)Cn2cnc3c(oc4ccccc43)c2=O)cc1OC | inactive |  |
| CN(C)CCCNC(=O)c1cc(C(=O)Cc2ccccc2)c[nH]1 |  | inactive: -0.587% [at 10.1 µM] |
| CN(c1ccccc1)S(=O)(=O)c1nnc(NC(=O)c2ccccc2)s1 | active: 7.08 µM |  |
| O=C(CCl)NCCN1C(=O)S/C(=C\c2cccnc2)C1=O | inconclusive: 20 µM [activator, single point] |  |
| CCOC(=O)C1=C(C)NC(=O)NC1c1ccc(N2CCC(c3ccccc3)=N2)cc1 (stereo unspecified) | inconclusive: 25.1 µM [activator, single point] |  |
| COc1ccc(Cl)cc1NC(=O)Cn1c(=O)n(CCC(=O)NCc2ccc3c(c2)OCO3)c(=O)c2ccccc21 | inconclusive: 35.5 µM [activator, single point] |  |
| O=C(N=c1ccn(-c2nc3ccccc3nc2NS(=O)(=O)c2ccc(Cl)cc2)cc1)c1cccs1 | inconclusive: 31.6 µM [activator, single point] |  |
